# Laboratory results from paper PMC4336329 (PLoS ONE, 2015).
# Hit rate of the full screen: of about 310,000 compounds, about 14,000 (4.5%) showed an effect of 50% or more. The effect is printed as a negative number. Some of the results follow.
# Molecular target: human ether-à-go-go-related gene (hERG) potassium channel (human, UniProt Q12809)
# Assay: primary screen, population patch clamp on CHO cells stably expressing hERG
# 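Note: peak tail current of the secondary pulse compared with the same well before compound.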
# Sequence of human ether-à-go-go-related gene (hERG) potassium channel (Q12809 whole entry, looked up): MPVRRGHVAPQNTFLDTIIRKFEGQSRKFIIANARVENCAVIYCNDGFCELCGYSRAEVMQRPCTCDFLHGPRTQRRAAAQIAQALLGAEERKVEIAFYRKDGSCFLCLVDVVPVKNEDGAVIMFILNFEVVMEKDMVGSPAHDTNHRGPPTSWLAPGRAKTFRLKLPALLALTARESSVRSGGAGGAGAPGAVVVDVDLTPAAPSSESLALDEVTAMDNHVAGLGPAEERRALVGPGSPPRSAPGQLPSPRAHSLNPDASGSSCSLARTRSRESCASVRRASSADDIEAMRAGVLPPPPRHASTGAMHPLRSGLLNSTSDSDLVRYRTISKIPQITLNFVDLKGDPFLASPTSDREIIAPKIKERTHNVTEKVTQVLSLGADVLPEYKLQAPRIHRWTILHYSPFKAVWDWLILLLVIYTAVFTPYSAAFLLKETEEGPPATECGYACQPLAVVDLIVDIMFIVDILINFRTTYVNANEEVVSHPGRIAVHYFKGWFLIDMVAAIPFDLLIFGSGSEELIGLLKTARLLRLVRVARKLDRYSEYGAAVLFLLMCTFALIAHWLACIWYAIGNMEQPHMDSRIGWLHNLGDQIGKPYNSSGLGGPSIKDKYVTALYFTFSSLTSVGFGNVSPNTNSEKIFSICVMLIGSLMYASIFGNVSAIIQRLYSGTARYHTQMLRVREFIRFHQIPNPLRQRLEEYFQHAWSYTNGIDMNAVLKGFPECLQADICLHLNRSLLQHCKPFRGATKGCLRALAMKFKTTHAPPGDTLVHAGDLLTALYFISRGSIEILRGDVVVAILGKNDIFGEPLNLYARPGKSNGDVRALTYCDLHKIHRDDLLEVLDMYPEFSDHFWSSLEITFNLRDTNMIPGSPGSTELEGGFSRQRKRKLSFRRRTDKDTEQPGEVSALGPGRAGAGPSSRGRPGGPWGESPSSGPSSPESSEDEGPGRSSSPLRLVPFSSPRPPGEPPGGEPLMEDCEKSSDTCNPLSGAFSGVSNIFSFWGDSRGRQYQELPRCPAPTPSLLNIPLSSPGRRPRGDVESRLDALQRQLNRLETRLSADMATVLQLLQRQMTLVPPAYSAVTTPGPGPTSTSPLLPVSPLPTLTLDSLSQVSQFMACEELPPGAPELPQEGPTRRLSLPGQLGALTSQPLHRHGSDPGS
row,SMILES,"hERG current change (%, negative = inhibition) at 10uM [%]"
1,O=C(NCCN1CCOCC1)c1ccncc1,6.71
2,CCN(CC)Cc1c(C(=O)N/N=C/c2cccc(OCc3ccc(F)cc3)c2)nnn1-c1nonc1N,-2.61
3,CN(C(=O)COC(=O)CNC(=O)c1ccccc1Cl)c1ccccc1,18.3
4,Cc1ccc(-n2c(-c3ccncc3)nnc2-c2cccs2)cc1,1.58
5,O=C(O)COCC(=O)Nc1ccc(OCCc2ccccc2)cc1,11.8
6,OCCN1CCN(Cc2cccc(Oc3ccc(Cl)cc3)c2)CC1,-21.9
7,CCOC(=O)/C(C#N)=C\N(C)C,26.9
8,CCOC(=O)c1c(C)[nH]c(C2=NNC(=NC3CC3)SC2)c1C,-30.1
9,COc1ccccc1Oc1ncnc2sccc12,13.3
10,O=C(CSc1ncnc2ccccc12)Nc1ccc2c(c1)OCO2,-7.32
11,CCOC(=O)c1cc(-c2ccccc2)sc1NC(=O)c1ccc(OC)cc1,16.7
12,NS(=O)(=O)c1ccc2nc(NC(=O)Nc3ccccc3F)sc2c1,11.6
13,CCS(=O)c1ccccc1C(=O)OC(C)C(=O)Nc1ccc(S(=O)(=O)N2CCCC2)cc1 (stereo not shown),7.31
14,Cc1ccc(-n2c(C)c([N+](=O)[O-])c3ccc(O)c(CN(C)C)c32)cc1,-23.6
15,COCCNC(=O)C(c1ccc(C)o1)N(C(=O)C(=O)NC1CCCCC1)c1ccc(F)cc1 (stereo not shown),-27.8
16,Cc1nc2ccc(Br)cn2c1C(=O)N/N=C\c1ccccc1Cl,22.8
17,Cn1c(N)c(C(=O)c2cc(-c3ccncc3)nc3ccccc23)c(=O)n(C)c1=O,0.566
18,Cc1ccc(NC(=S)NNC(=O)c2ccccc2OC(F)F)cc1,-0.615
19,CCCc1nc(SCC(=O)NC2CCCC2)c2ccccc2n1,-3.29
20,COc1ccccc1CC(=O)Nc1ccc(S(=O)(=O)N2CC(C)CC(C)C2)cc1 (stereo not shown),-7.25
21,O=C(CCNS(=O)(=O)c1ccccc1F)N1CCN(Cc2ccccc2)CC1,0.133
22,O=C(c1cnn(-c2nc3ccccc3s2)c1)c1ccccc1O,7.64

row,SMILES,"hERG current change (%, negative = inhibition) at 10uM [%]"
1,COc1ccc(Cc2nc3ccc(C(=O)N4CCCN(C=O)CC4)cc3o2)cc1,5.54
2,CCOC(=O)c1cc(NC(=O)c2cnccn2)cc(C(=O)OCC)c1,-5.78
3,COC(=O)C(C)n1cnc2c(nnn2-c2ccccc2)c1=O (stereo not shown),-3.87
4,Cc1nc(N)sc1N=Nc1c(C)n(C)n(-c2ccccc2)c1=O,-20
5,Cl.O=C(NC(=S)NC1CCN(Cc2ccccc2)CC1)c1ccc(F)cc1,-72.3
6,c1ccn2cc(C34CC5CC(CC(C5)C3)C4)nc2c1,-28.8
7,COc1cccc(OCCOc2ccccc2OC(C)C)c1,6.55
8,CCN1CCN(C(=O)C(=O)c2cn(CC(=O)N(CC)CC)c3ccccc23)CC1,14.2
9,CCc1c(C)sc(NC(=S)N2CCN(S(C)(=O)=O)CC2)c1C(=O)OC,-5.72
10,COCCNc1nnc(SCC(=O)Nc2sc3c(c2C(=O)c2ccccc2)CCCC3)s1,-4.2
11,COC(=O)C(C(=O)OC)c1ccc(N)cc1,-0.56
12,CCOc1ccc2nc(NCCCO)[nH]c2c1,4.96
13,CC(=O)c1c(C(C)=O)c(C)n(NC(=O)c2ccc(Cl)cc2)c1C,12.5
14,Cc1ccccc1CN(c1ccc(C(=O)NCC2CCCO2)cc1)S(C)(=O)=O (stereo not shown),3.91
15,Cc1ccc(Oc2nc(-c3cccnc3)nc3ccccc23)c([N+](=O)[O-])n1,11.9
16,O=c1oc2ccccc2n1CCCOc1ccccc1,-27.5
17,Cc1ccc2c(c1)N(C(=O)CCC(=O)Nc1ccccc1Br)CC(C)O2 (stereo not shown),-6.56
18,CC(C)OCCCNC(=O)CN1C(=O)/C(=C/c2ccccc2F)Oc2ccccc21,10.8
19,CCOC(=O)N1CCN(C(=O)CCCCCn2c(=S)[nH]c3ccsc3c2=O)CC1,-0.374
20,COc1cccc2cc(C(=O)N(C)C)c(=O)oc12,14
21,COc1ccc(C(=O)Nc2ccc(NC(=O)CSc3nnc(-c4ccncc4)n3C)cc2)cc1,-7.57
22,CC1CCN(C(=O)CCc2ccc(S(=O)(=O)NC(C)C)cc2)CC1,-10.7

row,SMILES,"hERG current change (%, negative = inhibition) at 10uM [%]"
1,CCN(CC(=O)NCc1cccs1)S(=O)(=O)c1ccc(F)c(F)c1F,-19.6
2,O=C(CCC1N=C2c3ccccc3N=C(SCc3ccc(F)cc3)N2C1=O)NCc1ccco1 (stereo not shown),-70.9
3,Cc1csc(N2CCCC2c2nc3cc(C(F)(F)F)ccc3n2CCOCCO)n1 (stereo not shown),-69.1
4,C=CCn1c(C)cc(-c2csc(NC(=O)C3=COCCO3)n2)c1C,7.97
5,COC(=O)c1ccccc1-c1c2ccc(=[NH2+])cc-2oc2cc(N)ccc12.O.[Cl-],-31.2
6,CCCc1cc(=O)oc2cc(OCc3ccc(C(=O)O)o3)ccc12,23.1
7,O=c1oc(-c2ccccc2)nc2ccsc12,-3.61
8,COc1cccc(NC(=S)NC(=O)/C=C/c2ccco2)c1,4.53
9,FC(F)(F)c1cccc(Cc2noc(CN(Cc3ccccn3)CC3CCCO3)n2)c1 (stereo not shown),-43.3
10,CCOC(=O)c1cnc(-c2ccccc2)nc1-c1ccccc1,7.13
11,Nc1nnnn1CC(=O)N/N=C/C=C/c1ccccc1,16.1
12,CC1(C)Cc2ccccc2-c2nnc(-c3cccc(O)c3)n21,17.4
13,CC(C)(C)n1nnnc1C(c1cccs1)N(Cc1cccnc1)CC1CCCO1 (stereo not shown),-14
14,Cc1ccc(C(=O)N2CCN(c3ccc(NC(=O)c4cccs4)cc3)CC2)cc1,-47.6
15,CSc1nnc(C2CCCN(CC(=O)Nc3ccccc3N3CCOCC3)C2)n1C(C)C (stereo not shown),-27.5
16,O=C(Nc1ccc(Cl)cc1)/C(=C1\CCCN1)[N+](=O)[O-],8.12
17,Cc1csc(CN(C)C(=O)CC2C(=O)NCCN2CC(C)(C)C)n1 (stereo not shown),5.5
18,O=C(c1cnc2n(c1=O)CCS2)N(c1ccccc1)C1CCCCC1,7.87
19,Cc1cc(NC(=O)c2cc3n(n2)C(C(F)(F)F)CC(c2ccco2)N3)n(-c2ccccc2)n1 (stereo not shown),-1.73
20,CCOc1ccc(NC(=O)C2CCN(C(=O)NCc3ccccc3)CC2)cc1,-8.54
21,O=C(NCC1CCCO1)c1c(O)c2ccccc2[nH]c1=O (stereo not shown),-0.367
22,CN1CCCN(C(=O)c2cccc(Br)c2)CC1,16.4

row,SMILES,"hERG current change (%, negative = inhibition) at 10uM [%]"
1,CCc1ccc(N(C(=O)C(F)(F)F)C(C(=O)NC2CCCCC2)c2ccncc2)cc1 (stereo not shown),16.3
2,CSCC[C@H](NS(=O)(=O)c1ccc(C)cc1)C(=O)N1CCC(C(=O)N[C@@H](Cc2ccc(O)cc2)C(=O)O)CC1,15.2
3,COc1ccc(NC(=O)/C=C/c2c(Cl)nc3ccccn23)cc1,-33.7
4,Cc1c(C(=O)N2c3ccccc3CC2C)oc2ccccc12 (stereo not shown),17.3
5,Nc1cc2c(cc1[N+](=O)[O-])OCCO2,5.64
6,CN(C)CCNC(=O)c1ccc2c(=O)n(Cc3ccc(Cl)cc3)c(=S)[nH]c2c1,-27.8
7,COc1ccc(NC(=O)CN(C)C(=O)c2cc(-c3ccc(C)o3)nc3ccccc23)cc1,-37.7
8,COc1ccc(OCC(=O)Nc2ccc3nc(C)sc3c2)cc1,17.9
9,Cn1c(=O)[nH]c(=O)c2c1nc(N1CCOCC1)n2CCCSc1ncccn1,-6.88
10,CCOc1ccc(NC(=O)C(CC(=O)O)Cc2ccc(Br)cc2)cc1 (stereo not shown),11.1
11,COc1ccc(CNC(=O)C2=CCN(S(=O)(=O)c3ccc(C)cc3)CC2)cc1,-34.2
12,CC(C)(C)c1ccc(C(=O)NNC(=O)c2ccccc2Br)cc1,2.52
13,Cn1cc(S(=O)(=O)Nc2ccc3c(c2)OCCO3)cn1,12.9
14,Cc1ccc(NCCC(=O)c2ccc(Br)cc2)cc1,0.444
15,CCC(=O)N(CCc1ccc(OC)c(OC)c1)Cc1cc2ccc(C)cc2n2nnnc12,-76.8
16,COc1ccccc1N1CCN(CC(O)COc2cccc3ccccc23)CC1.Cl.O (stereo not shown),-61
17,Cc1ccc(-c2nn(-c3ccccc3)cc2C(=O)N2CCOCC2)cc1C,-11.4
18,CCOC(=O)c1cnc2c(C#N)c(C)nn2c1-c1ccccc1,-3.03
19,CCCc1ccc(-c2cc(C(=O)NCCc3ccc(S(N)(=O)=O)cc3)c3ccccc3n2)cc1,13.2
20,COc1ccc(CCNC(=O)c2cc(S(=O)(=O)N(C)C)ccc2N2CCCC2)cc1OC,5.99
21,Br.CCC(C)N1Cc2ccccc2C1=N (stereo not shown),2.75
22,COc1cc(OC)cc(C(=O)Nc2cccc(NC(C)=O)c2)c1,-1.56
